± gives the standard deviation of the averaged measurements. Laboratory Escherichia coli strains with one amino-acid change in an essential protein, pooled on minimal glucose agar with carbenicillin or gentamicin at twice the control MIC (plus kanamycin and chloramphenicol for the plasmids), 48 h. Fold change of barcode share against drug-free plates; higher = less susceptible. Active = above 20 in both replicates (the paper's putatively resistant). '<' = one read or none on drug, '>' = one read or none on a drug-free plate. Shares are relative, so most strains fall below 1 when a few take over. Listed are strains with at least 15 reads on both drug-free plates, and hits; most hits rest on fewer reference reads. Replicate rank correlation about 0.5. Edits are read from barcodes.

The values that follow come from the supplement of paper PMC11876631.

This data set concerns the target Escherichia coli (laboratory strain). The data set can be described thus: barcode share on antibiotic plates over drug-free plates; higher = less susceptible. How it is done: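 A pool of E. coli strains, each edited to carry one amino-acid change in an essential protein, was grown for 48 h on minimal glucose agar with or without antibiotic; strain barcodes were sequenced; mean of two replicates.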

Where [1] appears, read: antibiotic: carbenicillin, 2× MIC (3.1 µg/mL).
Setting [2] is: antibiotic: gentamicin, 2× MIC (MIC 0.45 µg/mL).

B1: serB I314A (protein)
chain: MPNITWCDLPEDVSLWPGLPLSLSGDEVMPLDYHAGRSGWLLYGRGLDKQRLTQYQSKLGAAMVIVAAWCVEDYQVIRLAGSLTARATRLAHEAQLDVAPLGKIPHLRTPGLLVMDMDSTAIQIECIDEIAKLAGTGEMVAEVTERAMRGELDFTASLRSRVATLKGADANILQQVRENLPLMPGLTQLVLKLETLGWKVAIASGGFTFFAEYLRDKLRLTAVVANELEIMDGKFTGNVIGDIVDAQYKAKTLTRLAQEYEIPLAQTVAIGDGANDLPMIKAAGLGIAYHAKPKVNEKAEVTIRHADLMGVFCALSGSLNQK
On to B1, for which the “fold change of barcode share” value is 0.228 ± 0.19 under setting [1] and < 0.00774 under setting [2].

B2: serB F210D (protein)
chain: MPNITWCDLPEDVSLWPGLPLSLSGDEVMPLDYHAGRSGWLLYGRGLDKQRLTQYQSKLGAAMVIVAAWCVEDYQVIRLAGSLTARATRLAHEAQLDVAPLGKIPHLRTPGLLVMDMDSTAIQIECIDEIAKLAGTGEMVAEVTERAMRGELDFTASLRSRVATLKGADANILQQVRENLPLMPGLTQLVLKLETLGWKVAIASGGFTFDAEYLRDKLRLTAVVANELEIMDGKFTGNVIGDIVDAQYKAKTLTRLAQEYEIPLAQTVAIGDGANDLPMIKAAGLGIAYHAKPKVNEKAEVTIRHADLMGVFCILSGSLNQK
Take B2: the “fold change of barcode share” value under setting [1] came to 1.17 ± 0.093 and the “fold change of barcode share” value under setting [2] was found to be 0.0264 ± 0.015.

B3: serB F210Q (protein)
chain: MPNITWCDLPEDVSLWPGLPLSLSGDEVMPLDYHAGRSGWLLYGRGLDKQRLTQYQSKLGAAMVIVAAWCVEDYQVIRLAGSLTARATRLAHEAQLDVAPLGKIPHLRTPGLLVMDMDSTAIQIECIDEIAKLAGTGEMVAEVTERAMRGELDFTASLRSRVATLKGADANILQQVRENLPLMPGLTQLVLKLETLGWKVAIASGGFTFQAEYLRDKLRLTAVVANELEIMDGKFTGNVIGDIVDAQYKAKTLTRLAQEYEIPLAQTVAIGDGANDLPMIKAAGLGIAYHAKPKVNEKAEVTIRHADLMGVFCILSGSLNQK
In the case of B3, the “fold change of barcode share” value was 3.19 ± 1.9 under setting [1] and 0.0258 ± 0.016 under setting [2].

B4: serB I314Q (protein)
chain: MPNITWCDLPEDVSLWPGLPLSLSGDEVMPLDYHAGRSGWLLYGRGLDKQRLTQYQSKLGAAMVIVAAWCVEDYQVIRLAGSLTARATRLAHEAQLDVAPLGKIPHLRTPGLLVMDMDSTAIQIECIDEIAKLAGTGEMVAEVTERAMRGELDFTASLRSRVATLKGADANILQQVRENLPLMPGLTQLVLKLETLGWKVAIASGGFTFFAEYLRDKLRLTAVVANELEIMDGKFTGNVIGDIVDAQYKAKTLTRLAQEYEIPLAQTVAIGDGANDLPMIKAAGLGIAYHAKPKVNEKAEVTIRHADLMGVFCQLSGSLNQK
On to B4, for which the “fold change of barcode share” value runs as follows: under setting [1], 0.371 ± 0.0078; under setting [2], < 0.0152.

B5: serB F210W (protein)
chain: MPNITWCDLPEDVSLWPGLPLSLSGDEVMPLDYHAGRSGWLLYGRGLDKQRLTQYQSKLGAAMVIVAAWCVEDYQVIRLAGSLTARATRLAHEAQLDVAPLGKIPHLRTPGLLVMDMDSTAIQIECIDEIAKLAGTGEMVAEVTERAMRGELDFTASLRSRVATLKGADANILQQVRENLPLMPGLTQLVLKLETLGWKVAIASGGFTFWAEYLRDKLRLTAVVANELEIMDGKFTGNVIGDIVDAQYKAKTLTRLAQEYEIPLAQTVAIGDGANDLPMIKAAGLGIAYHAKPKVNEKAEVTIRHADLMGVFCILSGSLNQK
For the protein B5, the “fold change of barcode share” value is 0.751 ± 0.069 under setting [1] and 0.0127 ± 0.0083 under setting [2].

B6: serB F210A (protein)
chain: MPNITWCDLPEDVSLWPGLPLSLSGDEVMPLDYHAGRSGWLLYGRGLDKQRLTQYQSKLGAAMVIVAAWCVEDYQVIRLAGSLTARATRLAHEAQLDVAPLGKIPHLRTPGLLVMDMDSTAIQIECIDEIAKLAGTGEMVAEVTERAMRGELDFTASLRSRVATLKGADANILQQVRENLPLMPGLTQLVLKLETLGWKVAIASGGFTFAAEYLRDKLRLTAVVANELEIMDGKFTGNVIGDIVDAQYKAKTLTRLAQEYEIPLAQTVAIGDGANDLPMIKAAGLGIAYHAKPKVNEKAEVTIRHADLMGVFCILSGSLNQK
On to B6, for which the “fold change of barcode share” value came out at 0.42 ± 0.17 under setting [1] and 0.00681 ± 0.0058 under setting [2].

B7: accD V121A (protein)
chain: MSWIERIKSNITPTRKASIPEGVWTKCDSCGQVLYRAELERNLEVCPKCDHHMRMTARNRLHSLLDEGSLVELGSELEPKDVLKFRDSKKYKDRLASAQKETGEKDALVVMKGTLYGMPVAAAAFEFAFMGGSMGSVVGARFVRAVEQALEDNCPLICFSASGGARMQEALMSLMQMAKTSAALAKMQERGLPYISVLTDPTMGGVSASFAMLGDLNIAEPKALIGFAGPRVIEQTVREKLPPGFQRSEFLIEKGAIDMIVRRPEMRLKLASILAKLMNLPAPNPEAPREGVVVPPVPDQEPEA
Consider B7, for which the “fold change of barcode share” value runs as follows: under setting [1], 0.54 ± 0.14; under setting [2], < 0.00476.
